Reference: the supplement of paper PMC4967469
The IC50 comes from the fitted curve, where viability falls to half of the control; a limit (>, <) means that the fit lies beyond the doses tested. AUC, from the same fit, is the share of area under the viability curve across the 256-fold dose range; values near 1 show little effect. For some of these results: An inferred top dose was calculated from the reported fits. For some of these results: Where an entry number is given, a second screen of the drug exists; the two often differ.

What was measured:
Experiment in all cases: Viability of human cancer cell lines after 72 h of drug (GDSC screen)
[1] = compound: CC(C)C[C@@H](C=O)NC(=O)[C@H](CC(C)C)NC(=O)[C@H](CC(C)C)NC(=O)OCc1ccccc1 [MG-132]; conditions: top dose 1 µM
Protocol: (§1)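 Human cancer cell lines in 384-well plates, medium with 10% serum, drug for 72 h over a 256-fold dose range (nine 2-fold or five 4-fold steps up to the top dose). Adherent lines were fixed and stained with the nucleic acid dye Syto60, suspension lines read with resazurin; signal relative to control wells, capped at 0 and 100%. One two-parameter sigmoid per drug and line, fitted in a mixed model over all curves with the slope shared within a line.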

[2] = compound: Cc1ccc(Nc2nccc(N(C)c3ccc4c(C)n(C)nc4c3)n2)cc1S(N)(=O)=O [Pazopanib]; conditions: top dose 8 µM
Protocol: as §1

[3] = compound: Cn1cc(C2=C(c3ccc(Cl)cc3Cl)C(=O)NC2=O)c2ccccc21 [SB 216763]; conditions: top dose 10 µM; top dose inferred
Protocol: as §1

[4] = compound: CS(=O)(=O)N1CCN(Cc2cc3nc(-c4cccc5[nH]ncc45)nc(N4CCOCC4)c3s2)CC1 [GDC0941]; conditions: top dose 4 µM; screen: GDSC drug entry 1527; top dose inferred
Protocol: as §1

[5] = compound: CC(C)[C@H](C(=O)Nc1ccc(C(=O)NO)cc1)c1ccccc1 [AR-42]; conditions: top dose 5.12 µM; top dose inferred
Protocol: as §1

[6] = compound: C[C@]12O[C@H](C[C@]1(O)CO)n1c3ccccc3c3c4c(c5c6ccccc6n2c5c31)CNC4=O [CEP-701]; conditions: top dose 2 µM; top dose inferred
Protocol: as §1

LB2518-MEL (melanoma, adherent)
AUC [1]: 0.416
IC50 [1]: 36.5 nM
AUC [2]: 0.935
IC50 [2]: > 8000 nM
AUC [3]: 0.982
IC50 [3]: > 10000 nM
AUC [4]: 0.892
IC50 [4]: > 4000 nM
AUC [5]: 0.599
IC50 [5]: 608 nM
AUC [6]: 0.646
IC50 [6]: 324 nM

LC4-1 (lymphoblastic leukaemia, suspension)
AUC [1]: 0.779
IC50 [1]: 455 nM
AUC [2]: 0.93
IC50 [2]: > 8000 nM
AUC [3]: 0.985
IC50 [3]: > 10000 nM
AUC [4]: 0.941
IC50 [4]: > 4000 nM
AUC [5]: 0.332
IC50 [5]: 103 nM
AUC [6]: 0.874
IC50 [6]: > 2000 nM

LS-411N (large intestine, adherent)
AUC [1]: 0.742
IC50 [1]: 365 nM
AUC [2]: 0.955
IC50 [2]: > 8000 nM
AUC [3]: 0.981
IC50 [3]: > 10000 nM
AUC [4]: 0.881
IC50 [4]: > 4000 nM
AUC [5]: 0.361
IC50 [5]: 121 nM
AUC [6]: 0.647
IC50 [6]: 350 nM

LS-513 (large intestine, adherent)
AUC [1]: 0.987
IC50 [1]: > 1000 nM
AUC [2]: 0.987
IC50 [2]: > 8000 nM
AUC [3]: 0.955
IC50 [3]: > 10000 nM
AUC [4]: 0.863
IC50 [4]: 3710 nM
AUC [5]: 0.688
IC50 [5]: 1100 nM
AUC [6]: 0.723
IC50 [6]: 555 nM

LU-65 (large cell lung carcinoma, suspension)
AUC [1]: 0.889
IC50 [1]: > 1000 nM
AUC [2]: 0.98
IC50 [2]: > 8000 nM
AUC [3]: 0.987
IC50 [3]: > 10000 nM
AUC [4]: 0.951
IC50 [4]: > 4000 nM
AUC [5]: 0.66
IC50 [5]: 968 nM
AUC [6]: 0.987
IC50 [6]: > 2000 nM

LU-134-A (small cell lung carcinoma, suspension)
AUC [1]: 0.882
IC50 [1]: > 1000 nM
AUC [2]: 0.961
IC50 [2]: > 8000 nM
AUC [3]: 0.986
IC50 [3]: > 10000 nM
AUC [4]: 0.883
IC50 [4]: > 4000 nM
AUC [5]: 0.482
IC50 [5]: 284 nM
AUC [6]: 0.711
IC50 [6]: 516 nM

LU-139 (small cell lung carcinoma, suspension)
AUC [1]: 0.796
IC50 [1]: 624 nM
AUC [2]: 0.942
IC50 [2]: > 8000 nM
AUC [3]: 0.978
IC50 [3]: > 10000 nM
AUC [4]: 0.938
IC50 [4]: > 4000 nM
AUC [5]: 0.435
IC50 [5]: 203 nM
AUC [6]: 0.884
IC50 [6]: > 2000 nM

LXF-289 (lung adenocarcinoma, adherent)
AUC [1]: 0.58
IC50 [1]: 103 nM
AUC [2]: 0.926
IC50 [2]: > 8000 nM
AUC [3]: 0.961
IC50 [3]: > 10000 nM
AUC [4]: 0.599
IC50 [4]: 466 nM
AUC [5]: 0.609
IC50 [5]: 635 nM
AUC [6]: 0.599
IC50 [6]: 232 nM

MC116 (B-cell lymphoma, suspension)
AUC [1]: 0.92
IC50 [1]: 674 nM
AUC [2]: 0.997
IC50 [2]: > 8000 nM
AUC [3]: 0.999
IC50 [3]: > 10000 nM
AUC [4]: 0.758
IC50 [4]: 1040 nM
AUC [5]: 0.383
IC50 [5]: 167 nM
AUC [6]: 0.728
IC50 [6]: 443 nM

ME-1 (acute myeloid leukaemia, suspension)
AUC [1]: 0.878
IC50 [1]: > 1000 nM
AUC [2]: 0.989
IC50 [2]: > 8000 nM
AUC [3]: 0.988
IC50 [3]: > 10000 nM
AUC [4]: 0.988
IC50 [4]: > 4000 nM
AUC [5]: 0.402
IC50 [5]: 168 nM
AUC [6]: 0.851
IC50 [6]: 1700 nM

MFH-ino (soft tissue, adherent)
AUC [1]: 0.667
IC50 [1]: 199 nM
AUC [2]: 0.88
IC50 [2]: > 8000 nM
AUC [3]: 0.978
IC50 [3]: > 10000 nM
AUC [4]: 0.857
IC50 [4]: > 4000 nM
AUC [5]: 0.607
IC50 [5]: 662 nM
AUC [6]: 0.593
IC50 [6]: 235 nM

MHH-PREB-1 (B-cell leukaemia, suspension)
AUC [1]: 0.958
IC50 [1]: > 1000 nM
AUC [2]: 0.921
IC50 [2]: > 8000 nM
AUC [3]: 0.988
IC50 [3]: > 10000 nM
AUC [4]: 0.404
IC50 [4]: 140 nM
AUC [5]: 0.295
IC50 [5]: 91 nM
AUC [6]: 0.521
IC50 [6]: 141 nM

ML-2 (acute myeloid leukaemia, suspension)
AUC [1]: 0.597
IC50 [1]: 112 nM
AUC [2]: 0.962
IC50 [2]: > 8000 nM
AUC [3]: 0.979
IC50 [3]: > 10000 nM
AUC [4]: 0.867
IC50 [4]: 2960 nM
AUC [5]: 0.505
AUC [6]: 0.619
IC50 [6]: 255 nM

MLMA (hairy cell leukaemia, semi-adherent)
AUC [1]: 0.95
IC50 [1]: > 1000 nM
AUC [2]: 0.935
IC50 [2]: > 8000 nM
AUC [3]: 0.986
IC50 [3]: > 10000 nM
AUC [4]: 0.496
IC50 [4]: 244 nM
AUC [5]: 0.313
IC50 [5]: 95.5 nM
AUC [6]: 0.532
IC50 [6]: 153 nM

MMAC-SF (melanoma, adherent)
AUC [1]: 0.532
IC50 [1]: 76.8 nM
AUC [2]: 0.979
IC50 [2]: > 8000 nM
AUC [3]: 0.987
IC50 [3]: > 10000 nM
AUC [4]: 0.719
IC50 [4]: 1070 nM
AUC [5]: 0.822
IC50 [5]: 3150 nM
AUC [6]: 0.414

MN-60 (B-cell leukaemia, suspension)
AUC [1]: 0.94
IC50 [1]: > 1000 nM
AUC [2]: 0.965
IC50 [2]: > 8000 nM
AUC [3]: 0.982
IC50 [3]: > 10000 nM
AUC [4]: 0.752
IC50 [4]: 1370 nM
AUC [5]: 0.374
IC50 [5]: 141 nM
AUC [6]: 0.848
IC50 [6]: 1580 nM

MONO-MAC-6 (acute myeloid leukaemia, suspension)
AUC [1]: 0.827
IC50 [1]: 660 nM
AUC [2]: 0.87
IC50 [2]: > 8000 nM
AUC [3]: 0.978
IC50 [3]: > 10000 nM
AUC [4]: 0.692
IC50 [4]: 898 nM
AUC [5]: 0.402
IC50 [5]: 170 nM
AUC [6]: 0.173
IC50 [6]: 11.9 nM

MS-1 (small cell lung carcinoma, suspension)
AUC [1]: 0.991
IC50 [1]: > 1000 nM
AUC [2]: 0.97
IC50 [2]: > 8000 nM
AUC [3]: 0.99
IC50 [3]: > 10000 nM
AUC [4]: 0.946
IC50 [4]: > 4000 nM
AUC [5]: 0.327
IC50 [5]: 112 nM
AUC [6]: 0.953
IC50 [6]: > 2000 nM

MZ1-PC (pancreas, adherent)
AUC [1]: 0.852
IC50 [1]: > 1000 nM
AUC [2]: 0.916
IC50 [2]: > 8000 nM
AUC [3]: 0.976
IC50 [3]: > 10000 nM
AUC [4]: 0.645
IC50 [4]: 697 nM
AUC [5]: 0.474
IC50 [5]: 268 nM
AUC [6]: 0.905
IC50 [6]: > 2000 nM

Mo-T (hairy cell leukaemia, suspension)
AUC [1]: 0.85
IC50 [1]: 781 nM
AUC [2]: 0.972
IC50 [2]: > 8000 nM
AUC [3]: 0.98
IC50 [3]: > 10000 nM
AUC [4]: 0.837
IC50 [4]: 2760 nM
AUC [5]: 0.41
IC50 [5]: 180 nM
AUC [6]: 0.758
IC50 [6]: 710 nM

NALM-6 (B-cell leukaemia, suspension)
AUC [1]: 0.779
IC50 [1]: 341 nM
AUC [2]: 0.959
IC50 [2]: > 8000 nM
AUC [3]: 0.975
IC50 [3]: > 10000 nM
AUC [4]: 0.781
IC50 [4]: 1390 nM
AUC [5]: 0.314
IC50 [5]: 107 nM
AUC [6]: 0.49
IC50 [6]: 118 nM
